According to the supplement of paper PMC10126150:
Values marked as one replicate rest on one cluster of the flow cell; about a third of the high ones do not repeat.

Test system: ATP
Test: switch fluorescence ratio, 500 uM ATP over buffer (Cy3 cluster intensity, sum of 5 cycles each) (fold (ratio)); higher = stronger signal-on switching upon ATP binding; sequences stand for … in TCGTCGGCAGCGTCAGATGTGTATAAGAGACAGTTTTTTTTTTTTTTTTTTTTTTTTT…TC
Conditions: aptamer strand: ATP DNA aptamer (quencher-CACCTGGGGGAGTATTGCGGAGGAAGG + anchor), 100 nM annealed; ATP concentration: 500 uM; one replicate
Summary of the method: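 Values give the fluorescence ratio for each switch-domain sequence, averaged from per-cluster ratios of summed target-cycle to summed buffer-cycle Cy3 intensity. The Cy3-labelled switching-strand clusters sat on a modified Illumina MiSeq flow-cell, were annealed to 100 nM quencher-labelled ATP aptamer, and were imaged in selection buffer, then after 15 min with 500 uM ATP at 22 °C. Five cycles ran with NaOH stripping and re-annealing between them, and clusters outside 100-1000 RFU were excluded.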
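Further: ATP exposure 15 min at 22 °C before imaging.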

Sequence	switch fluorescence ratio
ACACCGTACG	1.41
TTATTGAGAT	1.17
AACTTGTGAC	1.07
ATCTTAATGA	0.986
CTCATCACCG	1.03
GGAGAATAGG	1.2
CGCATCGTGT	0.988
TAGGAATGGT	1.03
AATACTATTG	0.96
GCGGGCGG	0.97
CCCCATGAAG	1.03
ATGCGTGATA	1.02
ACTTCTTGGG	0.965
ATAATGCTCC	1.45
TGATTGCGG	0.997
GGAGCTAGTT	1.07
CCATTATCGA	1.02
TGTATTAAAA	0.986
TTCGGGAATG	0.989
CCGAAAGATG	1.13
TGGCCAGGG	1
ATTAATAAAA	0.824

Sequence	switch fluorescence ratio
TTAAGATATG	1.06
AGTGGACAC	1.01
AATGCGAGGT	1.01
GGCTTGTTGG	0.995
TATTCGCAAC	5.18
TGGCAGTCTG	1.02
TTACATTAGT	0.989
GCTGCTTCGA	1
ATGTGAGCCT	1.01
CTTAAATACT	1.31
GTTTGAGTGT	0.928
GACAACTAGG	0.984
TTTCTCGGTT	0.94
TGCAAGACTA	3.59
AGATTCCGCA	1.44
TTGAGATGAA	1.06
GCCCGCGGTC	1.3
CGAGCGAGAT	1.02
GTTCGTGGAG	1.07
TGCGGGGGT	0.966
CAAGTATTAT	0.987
CGTGGGAAGG	1.02

Sequence	switch fluorescence ratio
GCTTTGCATG	1.01
GAAGATTGGA	1.01
TTGTGTCTGT	1.02
GACATCAGGC	0.99
CGCCACCAAG	1.17
ACCGGACCA	1.17
GGCTCTGTCC	0.992
TCTTTAATGC	1.16
TCGGGGCAAC	1.12
GGGTACAAAT	1.01
AGTAAGACGC	0.992
TCTGATTCCC	1.01
GAAGCGCGGA	0.985
ATCCATTAAT	1.01
CACTATTTAC	1.1
CGAGGTCGGG	0.983
CGGTTATATT	0.994
CATCGTCAAG	1.01
AATCTCTCAG	1.01
CGGTTGAGCA	1.05
GAAGCTATTT	1.04
GCCAATTTT	0.985

Sequence	switch fluorescence ratio
TAAAGTCGAA	0.973
GACTTAGCCC	1.02
AGCACGACGG	1.04
ATATATTTTC	1.01
TTGAACGCAG	1.11
TTACGGGGGC	1.01
GGGAGTGTCG	1.05
GGGGACCGAC	1.13
CCCATCCTTT	0.998
TCAGTACCGG	1
CACCGTAGCC	1.52
GCGAGGCTTT	1.04
ACCCAGCGCA	1.12
GTAACAGCGG	0.981
CGGCTGGCAG	0.974
TGGTTGTGCT	1.07
GCATGGCCTT	1.02
CTTTAACAGG	1.03
GACGTAAGGT	4.7
